# No constants are given. Whether binding was seen depends on the method and setting. Binding seen in cells or lysates may run through a third protein. Some results given as binding are weak or reduced against the parent protein; the word gives no strength. For part of these data: Where a sequence is shown, tags or fusion partners need not be part of it.
# Sequences of proteins named here, by UniProt entry; tags and fusion partners are left off. A change or cut given only in a name is not applied to a line headed by its entry.
# UniProt Q9WUI0: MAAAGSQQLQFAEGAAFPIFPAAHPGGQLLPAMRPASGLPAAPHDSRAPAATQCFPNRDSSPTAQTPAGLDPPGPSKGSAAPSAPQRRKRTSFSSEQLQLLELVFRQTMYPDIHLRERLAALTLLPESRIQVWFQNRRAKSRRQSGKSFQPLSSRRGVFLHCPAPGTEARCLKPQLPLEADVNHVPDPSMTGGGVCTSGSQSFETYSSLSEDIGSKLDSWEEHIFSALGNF
# UniProt Q02591: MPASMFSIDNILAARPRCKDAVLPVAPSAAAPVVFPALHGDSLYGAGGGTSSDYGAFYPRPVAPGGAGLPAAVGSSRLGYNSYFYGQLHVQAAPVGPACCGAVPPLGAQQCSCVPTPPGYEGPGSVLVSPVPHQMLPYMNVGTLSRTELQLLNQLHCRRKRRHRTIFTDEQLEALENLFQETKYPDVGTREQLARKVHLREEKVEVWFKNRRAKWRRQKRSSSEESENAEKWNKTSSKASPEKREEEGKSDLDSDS
# Key:
# GST mT (mouse) = target: T1, GST mT (mouse) (UniProt P20293); assay: pull-down; 293T cells co-transfected with pDEST27 (GST) and pMT2-SM HA plasmids; whole cell lysates in ELB150 buffer on glutathione agarose, 4°C; Western blot with anti-HA
# T1 sequence: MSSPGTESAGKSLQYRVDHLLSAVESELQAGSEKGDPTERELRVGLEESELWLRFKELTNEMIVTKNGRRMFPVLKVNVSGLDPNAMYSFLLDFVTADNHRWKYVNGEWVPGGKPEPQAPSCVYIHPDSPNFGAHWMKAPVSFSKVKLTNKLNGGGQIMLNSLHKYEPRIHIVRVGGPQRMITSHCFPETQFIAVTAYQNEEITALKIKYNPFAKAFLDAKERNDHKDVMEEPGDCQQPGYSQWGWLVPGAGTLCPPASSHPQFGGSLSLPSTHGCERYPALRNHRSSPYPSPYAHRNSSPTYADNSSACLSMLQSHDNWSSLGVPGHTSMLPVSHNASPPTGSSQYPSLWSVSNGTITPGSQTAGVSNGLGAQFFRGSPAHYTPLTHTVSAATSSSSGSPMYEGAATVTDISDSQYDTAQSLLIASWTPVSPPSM
# GST mTbx3 (mouse) = target: T2, GST mTbx3 (mouse) (UniProt P70324); assay: as above
# T2 sequence: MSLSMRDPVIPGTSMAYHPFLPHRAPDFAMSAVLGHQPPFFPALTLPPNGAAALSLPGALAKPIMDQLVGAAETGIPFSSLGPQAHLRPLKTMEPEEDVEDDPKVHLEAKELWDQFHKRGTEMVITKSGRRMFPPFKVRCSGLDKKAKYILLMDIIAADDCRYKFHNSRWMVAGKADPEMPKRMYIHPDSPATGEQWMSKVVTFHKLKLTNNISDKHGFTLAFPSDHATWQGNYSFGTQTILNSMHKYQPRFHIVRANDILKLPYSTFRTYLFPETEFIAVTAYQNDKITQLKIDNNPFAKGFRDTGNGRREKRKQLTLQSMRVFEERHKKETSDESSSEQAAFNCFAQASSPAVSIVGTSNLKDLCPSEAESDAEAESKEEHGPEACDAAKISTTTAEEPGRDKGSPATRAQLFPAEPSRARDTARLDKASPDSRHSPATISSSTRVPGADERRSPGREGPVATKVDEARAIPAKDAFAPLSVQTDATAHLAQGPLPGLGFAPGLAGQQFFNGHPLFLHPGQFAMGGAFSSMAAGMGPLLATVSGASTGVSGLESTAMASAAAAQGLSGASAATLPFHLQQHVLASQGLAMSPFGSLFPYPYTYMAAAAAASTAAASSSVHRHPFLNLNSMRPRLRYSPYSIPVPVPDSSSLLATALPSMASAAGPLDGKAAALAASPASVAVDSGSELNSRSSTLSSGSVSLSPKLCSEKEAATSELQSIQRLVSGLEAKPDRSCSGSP
# GST-T aa 230–436 (mouse) = target: T3, GST-T aa 230–436 (mouse) (UniProt P20293); assay: as above
# T3 sequence: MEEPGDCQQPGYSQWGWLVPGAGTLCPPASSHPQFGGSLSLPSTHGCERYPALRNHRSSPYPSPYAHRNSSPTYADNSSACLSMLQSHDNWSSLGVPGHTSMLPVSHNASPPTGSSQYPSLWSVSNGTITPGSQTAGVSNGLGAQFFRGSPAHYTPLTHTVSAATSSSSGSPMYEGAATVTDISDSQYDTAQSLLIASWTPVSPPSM
# GST mEomes (mouse) = target: T4, GST mEomes (mouse) (UniProt O54839); assay: as above
# T4 sequence: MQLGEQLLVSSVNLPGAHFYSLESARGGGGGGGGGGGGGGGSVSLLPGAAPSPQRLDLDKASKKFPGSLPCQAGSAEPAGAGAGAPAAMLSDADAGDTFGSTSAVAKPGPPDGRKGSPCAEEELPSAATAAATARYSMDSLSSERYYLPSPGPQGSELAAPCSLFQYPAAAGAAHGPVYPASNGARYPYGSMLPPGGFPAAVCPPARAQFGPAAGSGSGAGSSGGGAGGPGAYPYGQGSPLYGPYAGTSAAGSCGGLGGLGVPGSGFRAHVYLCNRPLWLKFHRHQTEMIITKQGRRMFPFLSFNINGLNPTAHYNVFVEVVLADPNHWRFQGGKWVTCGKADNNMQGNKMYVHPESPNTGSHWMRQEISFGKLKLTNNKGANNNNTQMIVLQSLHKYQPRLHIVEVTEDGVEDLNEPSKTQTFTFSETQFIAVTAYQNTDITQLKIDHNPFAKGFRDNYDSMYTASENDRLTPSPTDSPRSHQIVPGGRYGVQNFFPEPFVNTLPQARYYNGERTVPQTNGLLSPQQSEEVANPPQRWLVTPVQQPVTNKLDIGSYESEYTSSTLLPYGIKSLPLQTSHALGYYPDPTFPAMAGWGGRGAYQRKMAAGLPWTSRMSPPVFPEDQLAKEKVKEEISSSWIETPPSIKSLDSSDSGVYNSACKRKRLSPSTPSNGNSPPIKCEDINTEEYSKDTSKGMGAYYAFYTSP
# GST-T aa 151–436 (mouse) = target: T5, GST-T aa 151–436 (mouse) (UniProt P20293); assay: as above
# T5 sequence: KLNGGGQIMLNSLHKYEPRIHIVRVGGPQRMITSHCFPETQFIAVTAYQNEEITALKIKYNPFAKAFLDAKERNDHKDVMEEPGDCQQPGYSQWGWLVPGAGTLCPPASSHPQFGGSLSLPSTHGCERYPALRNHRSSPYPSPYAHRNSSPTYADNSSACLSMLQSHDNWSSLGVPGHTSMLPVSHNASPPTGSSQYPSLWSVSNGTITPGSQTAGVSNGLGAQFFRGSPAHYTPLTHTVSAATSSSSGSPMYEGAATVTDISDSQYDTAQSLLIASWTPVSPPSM
# GST mTbx6 (mouse) = target: T6, GST mTbx6 (mouse) (UniProt P70327); assay: as above
# T6 sequence: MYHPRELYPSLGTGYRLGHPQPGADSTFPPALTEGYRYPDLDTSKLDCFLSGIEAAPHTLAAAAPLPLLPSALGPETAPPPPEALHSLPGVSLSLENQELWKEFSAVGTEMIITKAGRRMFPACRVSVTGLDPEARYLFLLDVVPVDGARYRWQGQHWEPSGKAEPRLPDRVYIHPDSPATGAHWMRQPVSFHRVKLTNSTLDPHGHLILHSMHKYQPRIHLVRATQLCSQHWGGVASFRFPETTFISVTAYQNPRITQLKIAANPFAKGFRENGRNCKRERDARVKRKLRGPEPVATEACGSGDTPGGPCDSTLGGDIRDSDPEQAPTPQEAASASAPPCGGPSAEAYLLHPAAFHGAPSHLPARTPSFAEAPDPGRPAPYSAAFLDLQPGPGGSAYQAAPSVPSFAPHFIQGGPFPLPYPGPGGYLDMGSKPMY
# GST mTbx20 (mouse) = target: T7, GST mTbx20 (mouse) (UniProt Q9ES03); assay: as above
# T7 sequence: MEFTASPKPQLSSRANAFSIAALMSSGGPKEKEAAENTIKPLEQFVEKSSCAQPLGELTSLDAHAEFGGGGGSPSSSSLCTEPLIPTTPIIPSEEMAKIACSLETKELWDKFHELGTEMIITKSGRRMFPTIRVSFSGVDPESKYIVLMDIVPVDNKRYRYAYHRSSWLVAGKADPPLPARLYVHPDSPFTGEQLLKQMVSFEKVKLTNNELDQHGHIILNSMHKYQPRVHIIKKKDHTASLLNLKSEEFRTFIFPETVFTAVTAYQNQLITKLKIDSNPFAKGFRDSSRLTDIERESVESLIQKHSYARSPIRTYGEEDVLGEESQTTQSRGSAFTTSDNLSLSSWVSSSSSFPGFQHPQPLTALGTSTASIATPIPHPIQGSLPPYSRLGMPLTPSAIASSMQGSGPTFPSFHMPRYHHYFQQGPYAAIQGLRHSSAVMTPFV
# FLAG mMixl1 (mouse) = FLAG mMixl1 (mouse) (UniProt Q9WUI0); assay: co-IP; 293T cells co-transfected with FLAG and HA expression plasmids; whole cell lysates in ELB150 buffer; IP with 5 µg anti-FLAG M2 or isotype control antibody, 4°C, protein G beads; Western blot with anti-HA (or anti-T N19)
# His-mBrachyury (mouse) = His-mBrachyury (mouse) (UniProt P20293); assay: pull-down; recombinant His-Brachyury immobilised on Talon metal affinity resin; nuclear protein extracts of day 4 embryoid bodies; Western blot with anti-Mixl1 6G2; only the target purified
substance,measurement,setting,value
HA mMixl1 I113R (from UniProt Q9WUI0 1-231),binding,GST mT (mouse),binds
HA mMixl1 P126I (from UniProt Q9WUI0 1-231),binding,GST mT (mouse),binds
HA mMixl1 V132A (from UniProt Q9WUI0 1-231),binding,GST mT (mouse),binds
HA mMixl1 (from UniProt Q9WUI0 1-231),binding,GST mTbx3 (mouse),binds
same,binding,GST-T aa 230–436 (mouse),binds
same,binding,GST mT (mouse),binds
same,binding,GST mEomes (mouse),binds
same,binding,GST-T aa 151–436 (mouse),binds
same,binding,GST mTbx6 (mouse),binds
same,binding,GST mTbx20 (mouse),binds
same,binding,FLAG mMixl1 (mouse),binds
HA mGsc (from UniProt Q02591 1-256),binding,GST mTbx3 (mouse),binds
same,binding,GST mT (mouse),binds
same,binding,GST mTbx6 (mouse),binds
same,binding,GST mTbx20 (mouse),binds
same,binding,FLAG mMixl1 (mouse),binds
HA mMixl1 R143I (from UniProt Q9WUI0 1-231),binding,GST mT (mouse),binds
endogenous Mixl1 (from UniProt Q9WUI0 1-231),binding,His-mBrachyury (mouse),binds
